# Hit rate of the full screen: of about 110,000 compounds, about 40 (0.04%) were called active. Inconclusive means that the source gave no clear call. Such entries were picked first, then a sample of the others. Calls come from the whole dose curve; as a rule, active = well fitted curve in the direction sought with a large enough effect in the signal ratio (not every such curve was filed as active); inconclusive = small, poorly fitted or top-dose-only effect, or a change in a side signal; inactive = flat fitted curve, though single readings scatter; the % refers to the signal ratio. Where the call is inconclusive, the potency comes from a doubtful curve fit.
# Test: IkB Signaling;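 for IkBa stabilization activation: 0% = basal untreated cells and 100% = reference inhibitor full response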
# Conditions: ABC-DLBCL IkBa-CBG/CBR dual luciferase ratio (green luciferase fused to IkBa over red control in OCI-Ly3 lymphoma cells), 4 h; IkBa stabilization activation: at 57.1 µM (top of the series), scaled: untreated 0%, proteasome inhibitor 100% unless noted
# Summary of the method: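 Luminescence ratio of IκBα-fused green versus native red beetle luciferase in OCI-Ly3 cells, 4 h post-doxycycline with compound; red signal alone, scaled from basal (0%) to zero light (-100%), flagged nonspecific or cytotoxic effects.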
# Potency is the fitted concentration of half-maximal effect.
Compound,IkBa stabilization activation,Potency
CC(C)(C)c1cc(CNC2CS(=O)(=O)C[C@@H]2O)cc(C(C)(C)C)c1O (some centres not stated),inconclusive: 8.55% [signal inhibitor],
COc1ccc(CN(C(=O)c2ccc(OCC(C)C)cc2)C2CCS(=O)(=O)C2)cc1 (configuration not stated),inconclusive: 7.98% [signal inhibitor],
COc1ccc(CCNC(=O)CCCCn2c(=O)c3ccccc3n(Cc3cccc(C)c3)c2=O)cc1OC,inconclusive: 4.79% [signal inhibitor],
Cc1nc2ncnn2c(N2CCN(c3cccc(C(F)(F)F)c3)CC2)c1C,inconclusive: 5.45% [signal inhibitor],
CCOc1ccc(CCNc2ncnc3onc(C)c23)cc1OCC,inconclusive: -3.26% [signal inhibitor],
O=c1oc(Cl)c(Cl)c2ccccc12,,"inconclusive: 10 µM [rising, partial curve]"
CC(=Nc1ccc(O)cc1)c1sc2ccccc2c1O,inconclusive: -0.491% [signal inhibitor],
COc1ccc(NC(=O)c2oc3ccccc3c2NC(=O)c2cc(=O)c3ccccc3o2)cc1,inactive: 8.76%,
CCCCN(C)c1nc(-c2ccco2)c2c(c1C#N)CC(C)(C)OC2,inconclusive: -7.99% [signal inhibitor],
Cc1cc(N2CCCCC2)n2ncc(-c3ccc(Cl)cc3)c2n1,,"inconclusive: 0.398 µM [signal inhibitor, partial curve]"
CCc1ccc(NC(=O)c2ccc(CNS(=O)(=O)c3ccc4c(c3)C(C)(C)C(=O)N4C)cc2)cc1,inconclusive: -2.47% [signal inhibitor],
CCOC(=O)c1cc(-c2cc3ccccc3o2)n[nH]1,inconclusive: 2.64% [signal inhibitor],
CN1CCN(c2ncc3nc(CCc4ccccc4)c(=O)n(Cc4ccc(F)cc4)c3n2)CC1,"inactive: -0.318% [at 11.4 µM, scaled: untreated 0%, proteasome inhibitor 100%]",
COc1cccc2c1Oc1ncccc1N(C(=O)CCC(=O)NCc1ccc(OC(C)C)cc1)C2,inconclusive: -1.63% [signal inhibitor],
COc1cccc(-c2ccc3ncnc(NCCN4CCOCC4)c3c2)c1,"inactive: 2.75% [at 11.4 µM, scaled: untreated 0%, proteasome inhibitor 100%]",
COc1ccc2c(c1)CC(C(=O)Nc1c(C)cc(C)cc1C)CO2 (configuration not stated),,inconclusive: 15.8 µM [signal inhibitor]
COc1cccc(C(=O)NCC(c2ccc3c(c2)OCO3)N2CCN(C)CC2)c1 (configuration not stated),inconclusive: 15.1% [signal activator],
